Data published in a collection of fitness landscapes (doi:10.1016/j.celrep.2020.107928).
Over roughly 81,000 sequences, “one-hybrid fitness for binding NBS DNA” has its median near -0.1; the highest 2% begin near 0.36. Some of the results follow.

B1: Caulobacter ParB omega fusion; a variant is named by its letters at X, in order, B8GW30 (parent)
chain: MESVVVGEPGMSEGRRGLGRGLSALLGEVDAAPAQAPGEQLGGSREAPIEILQRNPDQPRRTFREEDLEDLSNSIREKGVLQPILVRPSPDTAGEYQIVAGERAWRAAQRAGLKTVPIMVRELDDLAVLEIGIIENVQRADLNVLEEALSYKVLMEKFERTQENIAQTIGKSXSHVANXMRLLXLPDEVQSYLVSGELTAXHARAIAAAADPVALAKQIIEGGLSVRETEALARKAPNLSAGKSKGGRPPRVKDTDTQALESDLSSVLGLDVSIDHRGSTGTLTITYATLEQLDDLCNRLTRGI

Variants of: B1
Assay: one-hybrid fitness for binding NBS DNA (the Noc-binding site; scaled: cognate 1, non-cognate 0); higher = stronger binding
Conditions: with NBS DNA site
How it was run: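 On M9-minus-histidine containing 0.1 mM IPTG and 5 mM 3-AT, E. coli USO cells with a HIS3 reporter, site 19 bp from the promoter, grew 48 hours at 37°C to select Caulobacter ParB libraries randomised at four specificity codons. Plasmids from before and after were Illumina-sequenced, with three replicate libraries pooled and variants under 10 reads left out. Fitness is the log change in variant-to-wild-type read ratio, rescaled against cognate and non-cognate.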

| Variant | one-hybrid fitness for binding NBS DNA |
| --- | --- |
| PLQE | ≤ 0.2 |
| VPEY | ≤ 0.2 |
| QNWN | ≤ 0.2 |
| EIPS | ≤ 0.2 |
| YRRV | ≤ 0.2 |
| GYID | ≤ 0.2 |
| CYDG | ≤ 0.2 |
| INDN | ≤ 0.2 |
| RLWK | ≤ 0.2 |
| WGAF | ≤ 0.2 |
| HSFS | ≤ 0.2 |
| PLPD | ≤ 0.2 |
| CSER | ≤ 0.2 |
| IRLG | ≤ 0.2 |
| WTHK | ≤ 0.2 |
| WHAK | ≤ 0.2 |
| YGYN | ≤ 0.2 |
| SQTV | ≤ 0.2 |
| VTLP | ≤ 0.2 |
| HQNQ | ≤ 0.2 |
| YPPR | ≤ 0.2 |
| YFEC | ≤ 0.2 |
| PRDT | ≤ 0.2 |
| TDDN | ≤ 0.2 |
| LRDG | ≤ 0.2 |
| YLCC | ≤ 0.2 |

| Variant | one-hybrid fitness for binding NBS DNA |
| --- | --- |
| AYLY | ≤ 0.2 |
| WLCL | ≤ 0.2 |
| PKYY | ≤ 0.2 |
| QHTD | ≤ 0.2 |
| LDGS | ≤ 0.2 |
| QMWE | ≤ 0.2 |
| RWYT | ≤ 0.2 |
| GWLP | ≤ 0.2 |
| RSFK | ≤ 0.2 |
| GFMT | ≤ 0.2 |
| YRSQ | ≤ 0.2 |
| PGLT | ≤ 0.2 |
| QNYC | 0.218 |
| RAFW | ≤ 0.2 |
| CKRK | ≤ 0.2 |
| ARLR | ≤ 0.2 |
| KVDN | ≤ 0.2 |
| SVSC | ≤ 0.2 |
| KQRS | 0.224 |
| TWHC | ≤ 0.2 |
| DCCG | ≤ 0.2 |
| RIQF | ≤ 0.2 |
| LLME | ≤ 0.2 |
| LREQ | ≤ 0.2 |
| GVNR | ≤ 0.2 |
| VQVG | ≤ 0.2 |

| Variant | one-hybrid fitness for binding NBS DNA |
| --- | --- |
| PGNT | ≤ 0.2 |
| LQAW | ≤ 0.2 |
| IESS | ≤ 0.2 |
| HWAN | ≤ 0.2 |
| SNVL | ≤ 0.2 |
| EYRR | ≤ 0.2 |
| RWSY | ≤ 0.2 |
| ASGK | ≤ 0.2 |
| RIEY | ≤ 0.2 |
| VESV | ≤ 0.2 |
| CSLY | ≤ 0.2 |
| HHNG | ≤ 0.2 |
| DATT | ≤ 0.2 |
| RVAN | ≤ 0.2 |
| TDMF | ≤ 0.2 |
| RAMS | 0.333 |
| QGAD | ≤ 0.2 |
| TYDW | ≤ 0.2 |
| GGQL | ≤ 0.2 |
| RLMC | ≤ 0.2 |
| RNCA | ≤ 0.2 |
| TGYH | ≤ 0.2 |
| HGGG | ≤ 0.2 |
| FFLI | ≤ 0.2 |
